# Experimental data taken from the supplement of paper PMC3334620.
# In all, about 33,000 sequences were measured (“E-score (-0.5 to 0.5)”: median about -0.017, highest 2% from about 0.3 on). This is one part of the list.
# Target: T1, Sut1 (UniProt P53032)
# T1 sequence: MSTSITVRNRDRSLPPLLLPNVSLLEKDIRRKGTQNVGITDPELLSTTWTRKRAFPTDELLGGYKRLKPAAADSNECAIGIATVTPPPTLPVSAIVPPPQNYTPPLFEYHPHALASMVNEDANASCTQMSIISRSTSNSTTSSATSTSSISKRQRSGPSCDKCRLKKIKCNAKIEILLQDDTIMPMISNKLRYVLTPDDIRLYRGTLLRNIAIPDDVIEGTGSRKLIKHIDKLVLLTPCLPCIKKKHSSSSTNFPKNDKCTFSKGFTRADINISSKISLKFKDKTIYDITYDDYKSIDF
# Experiment: PBM E-score (8-mer binding enrichment) (E-score (-0.5 to 0.5)); higher = stronger / more preferred TF binding; most listed sequences are background and not binding sites
# Conditions: protein concentration: 200 nM; construct: GST-full length
# Experimental: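 Universal 'all 10-mer' protein binding microarrays (Agilent AMADID 015681) probed with GST-tagged S. cerevisiae TFs (full-length or DBD) made by in vitro transcription/translation (PURExpress), about 100-200 nM. Bound TF was detected with fluorescent anti-GST. Each ungapped 8-mer (which stands for itself and its reverse complement) is scored by the PBM enrichment score (E-score), a modified Wilcoxon-Mann-Whitney statistic from -0.5 to +0.5, computed with the Universal PBM Analysis Suite. Scale: above 0.35 generally sequence-specific binding.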
row,Sequence,PBM E-score
1,ATCTAGCC,-0.141
2,ACATTGAA,0.0921
3,GGGGCGCA,-0.366
4,ACACGCTC,0.0804
5,ATTAGCTC,0.095
6,CCGCACCG,-0.0103
7,ATAACCTA,0.121
8,CTTGCCGA,-0.0407
9,ACCTCAGC,-0.106
10,AAGGAATG,-0.0323
11,AATATGAG,0.14
12,ATCTTCAA,0.231
13,CGTACAGA,0.00189
14,GACGAATA,0.177
15,TCCTCGCA,-0.241
16,CAAAGATG,0.0218
17,CCATCCTC,-0.0771
18,AGTCCTGG,-0.291
19,AGCACTCG,-0.0717
20,CGCATCTC,-0.0996
21,ACCCGTCG,-0.319
22,AGGAAAGA,0.0593
23,AACTTTGA,0.0923
24,ATCAAGAC,-0.0472
25,AGTTTGAC,0.0556

row,Sequence,PBM E-score
1,CCACTTCC,-0.0469
2,ACGGATAA,0.103
3,CGCGGAAA,0.061
4,CAGCGACA,-0.222
5,GACCCATC,-0.141
6,GAAACACA,0.206
7,CATTTCGG,0.00789
8,CGCAGAAC,-0.0566
9,CTGCTGCA,-0.131
10,CTCTACGA,-0.147
11,AGCCTCCG,0.0179
12,TACATAGA,0.193
13,CAGTGTCA,-0.137
14,CCACGCTA,-0.189
15,ACAGGTTG,-0.155
16,CCGTTTCA,0.168
17,AACCGGCG,-0.0227
18,GTCTCACA,0.0297
19,AGAGGGGA,-0.113
20,AAGTCATA,0.077
21,GATACTAA,0.141
22,GATTGGAA,0.135
23,ACGCAAGA,0.00812
24,GCAACCGC,-0.132
25,ATGGAAAG,0.116

row,Sequence,PBM E-score
1,TCCTCAAA,-0.0389
2,CGCTCCCC,-0.416
3,AGGGTAAT,0.00404
4,ACGATTCA,0.023
5,TATGCAAA,-0.113
6,GGCCGACC,-0.234
7,AATGCATC,0.17
8,AACGGGCA,-0.0792
9,AGAATATA,0.117
10,AAATGCTA,0.0496
11,CTCACTAC,0.0485
12,AAAAAGCT,-0.0213
13,AATTAGAG,-0.0168
14,ACTCAGTG,-0.106
15,CCTCGTCA,0.0287
16,CCCTGTAA,-0.149
17,CTAGTTGA,0.0806
18,AGTCTAAG,0.23
19,CAGCTTGA,-0.11
20,ATTCTCAA,0.12
21,GCAGTTCC,0.00048
22,AGTACATA,0.134
23,ACACAGAC,0.0737
24,CGAGGGCG,-0.297
25,AGGTTAAA,0.0365

row,Sequence,PBM E-score
1,ACCATATC,0.075
2,ATATATGG,0.17
3,AGAGAGCC,-0.224
4,AGCATCTG,-0.219
5,ATGTTTTA,0.128
6,TAACCTGA,-0.0476
7,ACGGACGA,0.1
8,TTGATCAA,0.0321
9,GTTGCGGA,0.167
10,CCAAGCCC,-0.234
11,CAGTAACA,0.153
12,AGCTCTCC,-0.213
13,ACGAATCC,0.0809
14,TACAACCA,0.143
15,CTTTTATA,0.0778
16,CCTTACAG,-0.0957
17,CCGCAGTC,0.0158
18,ACCAGGCA,-0.235
19,TACTTAGA,0.0875
20,AGAGGGCC,-0.153
21,AAATTGGG,0.115
22,ATTCTACA,0.163
23,CTAACGCC,-0.0618
24,ATCAGTGG,-0.137
25,GTGGGATA,-0.0623

row,Sequence,PBM E-score
1,ACATTGGG,-0.0456
2,GCTATGTA,-0.129
3,CCATGAGA,0.00883
4,AGGGTTAT,-0.0349
5,AGTGCACA,-0.128
6,AATATGGC,-0.143
7,AGCCTGTC,-0.104
8,CAAAATGC,-0.0633
9,CCGAGTTC,0.0827
10,TCCGGGCA,0.255
11,ATAGGGCC,-0.144
12,TCCTAGAA,-0.118
13,CGATACGC,-0.125
14,CCTCGATC,0.00217
15,GAAACCAA,0.153
16,ACGTGCTG,-0.18
17,AAGCGCGC,0.105
18,GAGGAGAC,-0.0705
19,AGTGTTCA,0.165
20,CTGTGCCC,-0.251
21,ACCCGTCC,-0.28
22,GCCTCCAC,-0.248
23,AGCTCGTG,0.0432
24,AAACGTTT,0.156
25,CTGCACGA,-0.148

row,Sequence,PBM E-score
1,ACCGATCC,-0.0136
2,CCTTTAGC,-0.0413
3,CATACCGC,-0.182
4,GCATATGA,0.112
5,AAACAGTA,0.144
6,CGAGCCTA,-0.0841
7,AATGGGCG,-0.18
8,AAGAGTTA,0.12
9,ACGCGCTG,-0.0922
10,CCACGGTA,-0.115
11,TGGGGGAA,-0.285
12,GTCACCAA,-0.0973
13,AATGGGGA,-0.0922
14,GACACAAC,-0.102
15,CCCTATTA,-0.0365
16,ACAGGGTG,-0.226
17,ATCTCAAC,0.15
18,AGAGCGCG,-0.155
19,CAGGCCAA,-0.165
20,GAATCAGC,-0.104
21,AGTTAACT,0.218
22,CATGTCAA,-0.0254
23,CCAAAGCG,0.0511
24,ATATTGGG,0.0483
25,AATGACCC,-0.117

row,Sequence,PBM E-score
1,CCCCTATA,-0.216
2,AATACGCG,0.0191
3,TATCATCA,0.143
4,CATCGAAA,0.129
5,ACTCGATA,0.125
6,AATGTCGG,0.0666
7,ACAGAGCC,-0.063
8,CCGTGTCG,-0.117
9,GGCGTTAA,-0.0162
10,ACAGCGGT,-0.107
11,GTCAACTA,0.179
12,ATCACGGA,0.402
13,CTACGTCA,-0.255
14,CACGTTAG,-0.0671
15,CACCAATC,-0.0842
16,CTGGCAGA,-0.012
17,ACGAGTCT,-0.0823
18,GCCAGACC,-0.0239
19,CTACGGAG,0.381
20,CGGGATAG,-0.149
21,AGGGCTTG,-0.0777
22,CAAGCTAC,-0.134
